# Measurements taken from ChEMBL document CHEMBL4888484, “Replenishing the malaria drug discovery pipeline: Screening and hit evaluation of the MMV Hit Generation Library 1 (HGL1) against asexual blood stage Plasmodium falciparum ,using a nano luciferase reporter read-out” (2022).
# Hit rate of the full screen: of about 150,000 compounds, about 540 (0.36%) showed an effect of 50% or more. The list shows a part of the results.
# Test system: Plasmodium falciparum
# Assay: Primary screen in NF54 nanoGlo assay, in single point, at 2uM, 72h; a lower Z score goes with more inhibition
# Assay type: functional, Erythrocyte
# Settings: timepoint 72 hour
Compound,% Inhibition [%],Z score
Cc1cc(N(C)Cc2ccc3c(c2)OCO3)nc(N)n1,11,-0.96
O=C(NCC1CCOCC1)Nc1ccccc1,-3,0.49
Cc1ccc(CNS(=O)(=O)CC#N)c(OC2CCCCC2)c1,-18,2.31
C[C@@H](CNC(=O)CCc1cccs1)N1CCCC1,-7,0.93
Cc1noc(C)c1C(=O)N1Cc2c(-c3nc(C4CC4)no3)nn(C)c2C1,6,-0.93
CN1CCN(Cc2ccc3c(c2)OCCO3)C[C@]12CCNC(=O)CC2,-17,1.86
c1coc(-c2ncc(-c3cn(CCc4cnc5ccccn45)nn3)cn2)c1,-19,3.3
O=C(c1cccc(C(=O)N2CCCCC2)n1)N1CCCCC1,-6,0.83
O=C(NCc1ccco1)[C@@H]1COC2(CCN(C(=O)c3cccc(Cl)c3)CC2)N1C(=O)c1ccc(F)cc1,-2,0.32
CCCn1cc(CNC(=O)N2CCN(Cc3cc(F)cc(F)c3)CC2)cn1,11,-2.15
CCC[C@H]1COCCN1C(=O)c1c[nH]c(=O)[nH]c1=O,-5,0.87
O=C(NCCN1CCC(O)CC1)C(=O)Nc1ccc(C(F)(F)F)cc1,-3,0.42
CCc1nc(NCc2ccccc2)c2onc(-c3ccc(C)cc3)c2n1,-14,1.86
O=C(Cn1ncnn1)N1CCCC[C@H]1c1cccc(C(F)(F)F)c1,-15,2.13
CCC(CC)N1CC(C(=O)OC)O[C@H](C)C1 (stereo partly drawn),-11,1.3
COc1ccccc1-c1cc2nc(C)cc(N3CCN(c4ccccn4)CC3)n2n1,-6,1.11
Cc1cc(NC(=O)c2cccc(N(C)C)c2)sn1,-3,0.47
CC(=Cc1ccccc1)CN1CCO[C@H](c2nc(C)n[nH]2)C1,-10,1.27
CN(Cc1ccccc1)S(=O)(=O)N(C)Cc1nncn1C,4,-0.79
COc1ccc(CC(=O)N2CCOC3CCCCC32)cc1 (stereo not drawn),-10,1.42
Cc1nnc2n1CCN([C@@H](C)C(=O)NC1(C#N)CCCCC1)C2,7,-1.1
NC(=O)CN1CCC(C(=O)N2CCC3(CC2)Cc2cccc(c2)Oc2cccc(c2)CCNC3=O)CC1,-4,0.76
CCOc1ccc2nc(C(=O)Nc3ccc(Br)cc3)sc2c1,8,-0.89
CC1CCC(N(C(=O)[C@H]2CC(=O)N(C3CC3)C2)C2CC2)CC1 (stereo partly drawn),-1,0.12
